From PMC3718625, “Acetyl and butyryl cholinesterase inhibitory sesquiterpene lactones from Amberboa ramosa” (Chemistry Central Journal, 2013)

Target: butyrylcholinesterase (horse serum E.C. 3.1.1.8); BChE (Equus caballus, UniProt P81908)
Experiment: biochemical

Chain of UniProt P81908 (P81908 whole entry): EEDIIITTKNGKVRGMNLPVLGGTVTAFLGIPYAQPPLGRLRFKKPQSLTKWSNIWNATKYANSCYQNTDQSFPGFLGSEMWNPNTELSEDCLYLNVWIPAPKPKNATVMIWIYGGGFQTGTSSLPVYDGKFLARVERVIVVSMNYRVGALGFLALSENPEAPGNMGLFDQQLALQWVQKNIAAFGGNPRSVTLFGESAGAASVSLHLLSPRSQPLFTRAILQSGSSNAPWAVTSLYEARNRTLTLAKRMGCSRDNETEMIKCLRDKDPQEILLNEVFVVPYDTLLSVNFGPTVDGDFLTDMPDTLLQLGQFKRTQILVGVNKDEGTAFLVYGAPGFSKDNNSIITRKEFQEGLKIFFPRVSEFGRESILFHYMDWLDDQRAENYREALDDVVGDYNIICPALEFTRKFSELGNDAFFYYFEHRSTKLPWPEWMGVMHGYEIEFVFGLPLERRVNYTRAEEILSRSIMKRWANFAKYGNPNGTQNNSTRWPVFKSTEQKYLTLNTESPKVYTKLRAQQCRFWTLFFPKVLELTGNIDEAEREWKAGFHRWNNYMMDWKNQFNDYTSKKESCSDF

Row | SMILES | IC50 [µM]
1 | CC(=O)O[C@H]1C[C@@](C)(OC(CO)CO)[C@@H]2CC=C(C)[C@@H]2[C@H]2OC(=O)[C@@H](C)[C@@H]21 [compound 1, 8α-Acetoxy-10α-(1,3-dihydroxy-2-propyl)-1 α H, 5α H, 6β H, 7α H, 11 β H, 11α-methylguaia-3-enolide] | 17.9 ± 0.05
2 | CC(=O)O[C@H]1C[C@@](C)(O)[C@@H]2CC=C(C)[C@@H]2[C@H]2OC(=O)[C@@H](C)[C@@H]21 [compound 3, Amberbin A] | 4.8 ± 0.15
